In the supplement of paper PMC11417369:
± gives the standard deviation of the averaged measurements. The list shows a part of the results.

tested on: PfAP2-LT AP2 domain (GST-tagged); test: gcPBM binding intensity (ln(normalized median fluorescence intensity)); higher = stronger DNA binding
In short: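 Binding intensity is the highest Masliner-normalised natural-log median intensity over replicate spots in either probe orientation. To obtain it, GST-tagged P. falciparum DNA-binding domains made in E. coli were incubated for 1 h on an Agilent 4 × 180k array of primer-extended double-stranded 36-bp intergenic genomic probes plus negative controls. Detection used Alexa488 anti-GST antibody with scanning at 488 nm.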

Row | Sequence | gcPBM binding intensity (ln)
1 | TAATGAAAAAATAAAAGAATAAATAAATAAATAAAT [TGCATGCA_negctrl_site130] | 8.69 ± 0.46
2 | ATTAAAAAAATATAAACACACAAAAAAAAAATATAC [CACACA_site1100] | 9.11 ± 0.56
3 | TATAAAAAGCATAACACACACATGTCAATATATATA [CACACA_site1111] | 9.31 ± 0.35
4 | AAAAAAAAAATATGTACACACATATATAATACATAA [CACACA_site1639] | 9.05 ± 0.38
5 | ATAGAACAGAAAAGGCGTACAATAATATGTAAACAA [XGTACX_site2828] | 9.16 ± 0.5
6 | TATAAATTTAAAATGACACACACTAAAATTATTTAA [CACACA_site1239] | 8.87 ± 0.44
7 | GTATTATTATTATGCACACAAAAATATTTATACATA [CACACA_site3656] | 8.95 ± 0.35
8 | TATATATATATATATATATATATATATATATGTATA [TGCATGCA_negctrl_site17] | 9.8 ± 0.38
9 | CATATGTCTTGAGATCGTACGTTATTTTTTTTATTT [XGTACX_site1381] | 8.97 ± 0.38
10 | AAGAATATTAATATAAATAAGTAAATAAATAAATAA [CACACA_negctrl_site417] | 8.74 ± 0.47
11 | AAAAATTATATATATATATATATATATATATGTATA [GTGCAC_negctrl_site488] | 9.23 ± 0.21
12 | TGGTAAATTTACCGTTGTACATTCATTTATAACATT [XGTACX_site8910] | 8.79 ± 0.39
13 | ATATATGTATTTAATACACACAAAACTTTCATTCCA [CACACA_site3531] | 9.04 ± 0.35
14 | ATATTCATTAACCACACACACAAAAAAAATAAAATT [CACACA_site3801] | 9.59 ± 0.26
15 | ATACATATATGCTTCTGTACACATAATTTATAAAAA [XGTACX_site7000] | 8.59 ± 0.33
16 | TTTTTAGAAAGACATGCATGTAATAAAAATAAATAA [TGCATGCA_site685] | 9.09 ± 0.54
17 | CTATTTCAATTTAGTGCACACATTTTAATTTATAAG [CACACA_site2040] | 8.81 ± 0.45
18 | ACATACACATATACATGTACATATATATATATATAT [XGTACX_site5082] | 9.68 ± 0.3
19 | ATTAAAACAAAATGTACACACATATCATTTAATGAC [CACACA_site6543] | 9.06 ± 0.38
20 | TATGAAAAGATATATACACACATAATAAAGGTATAT [CACACA_site7713] | 9.17 ± 0.44
21 | CATTATTATTAACATACACACGTGTTAAATACACCC [CACACA_site6118] | 9.1 ± 0.49
22 | TTTTAATCTTAATTATGTACATATAAAATGTGTATA [XGTACX_site7382] | 8.58 ± 0.4
23 | TCTATACCTATTCTTACACACATATGTATATATATA [CACACA_site563] | 9.22 ± 0.34

Row | Sequence | gcPBM binding intensity (ln)
24 | TTTTTTTTTTTTGAAACATGCATTGTTTTATTCTTA [TGCATGCA_site15] | 8.61 ± 0.45
25 | AAAAAAAGATTATACACACACATATATAAACCTACA [CACACA_site710] | 9.46 ± 0.28
26 | TTTTTTTTTTTTTGTTGTACAATACTTAATCATTAT [XGTACX_site3422] | 8.66 ± 0.47
27 | ATATATATATAATCAAGTACACAGTAATAAAAAGAA [XGTACX_site1070] | 9.18 ± 0.4
28 | AATAATAACTGTAGGTGTACGTAAAAAAAAAATTAT [XGTACX_site3133] | 8.99 ± 0.42
29 | ATTGTGTTCATCAGCACACACAACATCATGCAATAA [CACACA_site6960] | 9.2 ± 0.31
30 | TAAATGCACATATACACACACCCAATTTTAAGTTTT [CACACA_site7428] | 9.43 ± 0.28
31 | ACATCAAGAATTATTAAGAATACGGATAGATAAAAT [GTGCAC_negctrl_site261] | 8.72 ± 0.46
32 | TTAATTTCATTTTCTACACACCTATCCTTTTTTTTT [CACACA_site772] | 8.96 ± 0.48
33 | ATACATATTACATGTTGTACTCCAACAAAAATGCCC [XGTACX_site3201] | 8.93 ± 0.4
34 | AATAAAAAAAGTTTTTTTTTTTTTTAAACAATAGAC [CACACA_negctrl_site1061] | 8.2 ± 0.58
35 | AAAAATTTAATGAAATGTACATATATGTTATTAATA [XGTACX_site6091] | 8.54 ± 0.43
36 | AATAACCACCAACACACACACATATATATATATATA [CACACA_site3540] | 10.2 ± 0.24
37 | ATAATAATAATAAAAAGTACATTTAATTATATAGAA [XGTACX_site7742] | 8.69 ± 0.56
38 | AAGAATGTTAATAGTACACACAATTATTATATAAAT [CACACA_site3739] | 9 ± 0.45
39 | TATATGTTTTAAAAGTGTACTTTAGTTTCAATTTTT [XGTACX_site4269] | 8.47 ± 0.59
40 | TTTTGTTTTGTTTTGTTTTGTTTTGTTTTATTTTAT [GTGCAC_negctrl_site383] | 8.9 ± 0.43
41 | AATGTATATATGTAATGTACATATGTAATGTATATA [XGTACX_site6509] | 9.1 ± 0.4
42 | AATATAGATATAACCACACACATACATCTAATTCTA [CACACA_site1760] | 9.42 ± 0.3
43 | GAAAAGAACAAGAGCATGCACTTAATAAGAATAATA | 8.99 ± 0.45
44 | TGTTTCTTATTTTTTTCACACACTAAACATTTCAAA [CACACA_site2218] | 8.93 ± 0.44
45 | TTTCAAAATGTGTAAAATAAAAATAATATCATTACA [TGCATGCA_negctrl_site521] | 8.45 ± 0.44
46 | ATGTGATATAAGTACACACACATATGTATATAGAAT [CACACA_site1823] | 9.79 ± 0.3

Row | Sequence | gcPBM binding intensity (ln)
47 | AAAAAAGTTGTATTTGCACACATAAAAAAAAGATAT [CACACA_site3839] | 9.08 ± 0.44
48 | AATTTAAAAATGGACACACACAAAAAATAATACTTA [CACACA_site250] | 9.36 ± 0.46
49 | GTATATTATATTGGGTGTACCATATATAATATAATC [XGTACX_site8579] | 8.7 ± 0.41
50 | AAAAATTAACAAAAGGTGCAATTTATTTATTAACGG | 8.62 ± 0.45
51 | TTATAAATAAAAAATACACACATATATATATATATA [CACACA_site207] | 9.64 ± 0.2
52 | AACTTGTATTTATACACACACACACTGTCTTTTTTT [CACACA_site7009] | 9.82 ± 0.35
53 | TAAAATTTTATAAAGGAACACACATTTTTTTTTTTT [CACACA_site8740] | 8.52 ± 0.44
54 | TATTTTAATATGTATACATGCATACCTACTCATACA [TGCATGCA_site779] | 8.87 ± 0.5
55 | TAGACAAAATATAATGCACACTATTATTTTTATTTA [CACACA_site5508] | 8.66 ± 0.47
56 | AAGAAAAATATATAAATAAATAAATATATAAATATA [CACACA_negctrl_site836] | 8.55 ± 0.58
57 | ATTAATATATTATCATGTACACAAAAATAATTTTAT [XGTACX_site7257] | 8.61 ± 0.32
58 | GGAAACAAAAAATATATACACACTAATCATAAAAAA [CACACA_site7890] | 9.03 ± 0.43
59 | TAAAAATATATATGATTGCACTTAGGACAATATATA | 8.65 ± 0.41
60 | TATTCTCTCTTATGAACACACATTTTTATTTTCAAA [CACACA_site7554] | 8.78 ± 0.45
61 | ATATATATGTGTAAAAGTACATATATTTTGAAATAT [XGTACX_site4024] | 9.08 ± 0.42
62 | TTTTAATAAAAGCCCATGCACACCTTAGAAAGTTTT [CACACA_site346] | 8.56 ± 0.41
63 | TAAATATATATTATATGTACTTATATATATATATAT [XGTACX_site4448] | 8.79 ± 0.28
64 | TTTTTCATTTTTAAAATAATTATAATATTATACATA [XGTACX_negctrl_site43] | 8.35 ± 0.44
65 | TAAATCAGCCATAACACACATACATATATACATAAA [CACACA_site396] | 9.14 ± 0.37
66 | AGCAAATAAATAAATAAATAAATAAATATATATATA [TGCATGCA_negctrl_site40] | 8.79 ± 0.46
67 | ATAATTAACAAATACACACACACACGCCCACAAAAA [CACACA_site6389] | 10 ± 0.11
68 | CAATCAAATGGACACACACACACCTAAACATAAAAG [CACACA_site5524] | 10 ± 0.3
69 | ATTAAAAAATTACAAGCATGCTTGTTAAAATTTTTT [TGCATGCA_site941] | 8.39 ± 0.44

Row | Sequence | gcPBM binding intensity (ln)
70 | CTTTTTTTTTTAAATTGTACAAATGTGATGTAATAG [XGTACX_site3219] | 8.36 ± 0.4
71 | TATATATATGTATATGTGCACAGTTTTCTTATTAAA [GTGCAC_site9990] | 8.73 ± 0.4
72 | TGGGCACCCATATACACACACAAATACAATGATAAA [CACACA_site4762] | 9.32 ± 0.52
73 | AAAAAAAAAAAAATGTGTACATACATATATTTATAT [XGTACX_site3076] | 8.75 ± 0.45
74 | GGAAAAGGTATCCGTTCACACATAAATGGATACCAT [CACACA_site5072] | 8.8 ± 0.42
75 | ATTACATATTGATAAGTGCAAGTGTGAGAAATGTTA | 8.9 ± 0.38
76 | TCTATATAGATTTGCACACATAAAAATGCTTATATA [CACACA_site2389] | 9.07 ± 0.26
77 | TTTTATTTATTTTATTGTACATATATAAAACTATGA [XGTACX_site3476] | 8.53 ± 0.49
78 | AATATATTATATATATGTACATATGTGTATACATTT [XGTACX_site937] | 8.91 ± 0.43
79 | CCCACATAAAAAAATAAACACACATATGTATATATA [CACACA_site9040] | 9.17 ± 0.4
80 | TAATCAATTCAATATTGTACGATATTTACCTTTAAA [XGTACX_site4678] | 8.64 ± 0.53
81 | AAATGGGCTTATTTATGTACTTAAATATATCTACCC [XGTACX_site3823] | 8.85 ± 0.61
82 | TACATATATATATACACACATACATATATATACGCA [CACACA_site792] | 9.11 ± 0.28
83 | AACCTCGTGTAATATGCATGTTCCCTTCAAAGTTTT [TGCATGCA_site459] | 8.82 ± 0.34
84 | ATTATACATTTTAGATGTACATATTTTAAATTTAAT [XGTACX_site5174] | 8.62 ± 0.36
85 | AGAAATTAATCGAAGTGTACATATAAACATACATAT [XGTACX_site5518] | 9 ± 0.41
86 | ATATTTTGTATAATCACACACACTATTCTTAAATAG [CACACA_site7270] | 9.23 ± 0.37
87 | AACAAACAAACAAATATACACACTTTTGTATAAAGT [CACACA_site3509] | 9.17 ± 0.41
88 | TACATTGTATACATATGTACACATATATATATATAT [XGTACX_site6174] | 9.59 ± 0.25
89 | TATTTATGTTATAATTGTACAATAAACAAATTTTTT [XGTACX_site5306] | 8.45 ± 0.31
